The full ranking holds about 110,000 compounds; the median of “z-score” is about -0.1, and the highest 2% start at about 2. The list shows a part of the results. Activity calls are given as the source filed them.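 Rule for the calls: active = z-score in the third read window above 3 or below -3; inactive = the rest.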
Target: Metabotropic glutamate receptor 8 (Rattus norvegicus) (UniProt P70579)
Assay: mGluR8 Gi/Go-coupled signaling modulation – cell-based, rat, thallium flux, HTS, primary screen (AID 488969)
Conditions: HEK293 rat mGluR8, GIRK (G protein-gated inwardly rectifying potassium channel) thallium flux, FluoZin2; at 10 µM; stronger effect = higher value; submaximal glutamate (EC20) added with thallium

Chain of UniProt P70579 (P70579 whole entry, looked up): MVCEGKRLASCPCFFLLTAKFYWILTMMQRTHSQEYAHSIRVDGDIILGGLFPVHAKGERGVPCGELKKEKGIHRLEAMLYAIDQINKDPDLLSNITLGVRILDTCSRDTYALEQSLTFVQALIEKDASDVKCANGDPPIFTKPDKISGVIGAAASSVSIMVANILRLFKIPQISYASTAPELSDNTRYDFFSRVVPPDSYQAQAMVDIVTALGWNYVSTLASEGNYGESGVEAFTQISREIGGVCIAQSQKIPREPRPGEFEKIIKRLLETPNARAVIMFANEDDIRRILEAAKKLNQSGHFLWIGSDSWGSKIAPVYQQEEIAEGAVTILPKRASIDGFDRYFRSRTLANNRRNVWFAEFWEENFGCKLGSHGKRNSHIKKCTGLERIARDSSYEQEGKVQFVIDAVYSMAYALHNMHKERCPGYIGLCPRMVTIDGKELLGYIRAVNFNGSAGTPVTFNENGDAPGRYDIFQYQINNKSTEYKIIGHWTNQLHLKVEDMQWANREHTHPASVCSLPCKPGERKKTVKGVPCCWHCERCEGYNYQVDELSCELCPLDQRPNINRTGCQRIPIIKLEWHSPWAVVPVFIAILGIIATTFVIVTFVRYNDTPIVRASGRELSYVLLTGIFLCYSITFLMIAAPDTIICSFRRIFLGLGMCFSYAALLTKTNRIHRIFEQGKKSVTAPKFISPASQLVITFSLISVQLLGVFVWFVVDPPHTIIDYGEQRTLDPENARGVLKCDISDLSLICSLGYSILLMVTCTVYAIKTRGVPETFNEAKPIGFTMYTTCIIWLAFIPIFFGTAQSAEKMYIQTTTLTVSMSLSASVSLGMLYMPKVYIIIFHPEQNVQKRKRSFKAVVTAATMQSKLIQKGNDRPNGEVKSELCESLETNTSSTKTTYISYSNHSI

In order of falling z-score:
1. COc1ccc([C@@H]2Sc3cc(OC)ccc3N(CCN(C(C)C)C(C)C)C(=O)[C@H]2OC(C)=O)cc1  2.62
2. CCOC(=O)c1cncc(C(=O)O)c1  1.8
3. Cc1cc(C)nc(Nc2nc(=O)c3ccccc3s2)n1  1.6
4. CCn1c(CCCNC(=O)c2cccs2)nc2ccccc21  1.57
5. Cc1ccc(NCN2C(=O)C3C4CCC(C4)C3C2=O)cc1 (stereo unspecified)  1.54
6. CCOC(=O)CSc1nc2ccccc2n1CC(=O)NC(C)(C)C  1.48
7. CC(=O)c1cn(CC(=O)Nc2c(C)cccc2C)c2ccccc12  0.782
8. COCCCn1c(=O)c2ccccc2c2ccccc2c1=O  0.651
9. Cc1nc2ccc(S(=O)(=O)NC(CC(C)C)C(=O)O)cc2s1 (stereo unspecified)  0.62
10. CCOC(=O)N/N=C/c1ccccc1F  0.544
11. C=CCC(CC=C)(C(=O)O)c1ccccc1  0.46
12. Cc1cc(NS(=O)(=O)c2ccccc2)n(-c2ccccc2)n1  0.432
13. CCOC(=O)C1CCN(C(c2cccnc2)c2c(NC(=O)c3ccco3)sc(C)c2C)CC1 (stereo unspecified)  0.363
14. CCC(NC(=O)NCc1ccccc1)(C(F)(F)F)C(F)(F)F  0.361
15. CCCOc1ccc(C2C(=O)N(C3CCCCC3)CC(=O)N2CCCOCC)cc1OC (stereo unspecified)  0.34
16. N#CCCN(CCC#N)C(=O)c1ccc(Cl)cc1  0.32
17. Cc1cc(C(=O)CSc2nnc(C3COc4ccccc4O3)n2C)c(C)n1-c1ccc(F)cc1 (stereo unspecified)  0.31
18. CN1CCN(NC(=O)CN2C(=O)/C(=C/c3ccccc3F)SC2=S)CC1  0.269
19. CC(C)(C)c1nn(-c2ccccc2)c2[nH]c(=O)c(CNc3ccc4c(c3)OCCO4)cc12  0.265
20. CCN1CCN(C(c2ccccc2)c2nnnn2CCc2ccc(OC)c(OC)c2)CC1 (stereo unspecified)  0.256
21. CC1(C)Cc2ccccc2-c2nnc(-c3cccnc3)n21  0.241
22. Cc1nn(-c2ccccc2)c2sc(C(=O)N3CCCCC3)cc12  0.23
23. COC(=O)Cc1nc2ccccc2[nH]1  0.229
24. COC(=O)c1[nH]c2cccc(OC)c2c1NC(=O)CCN1CCN(c2cccc(Cl)c2)CC1  0.225
25. Cc1ccc(CNc2ncc(-c3ccc4c(c3)OCO4)n2C)cc1  0.219
26. CC(=O)NC(CC(=O)Nc1ccc(S(=O)(=O)N2CCCC2)cc1)c1ccccc1 (stereo unspecified)  0.201
27. COc1ccc(N(CC(=O)NC2CCCC2)C(=O)c2csnn2)cc1  0.193
28. CCOC(=O)c1ccc(CSc2ncn[nH]2)o1  0.192
29. CC1CCN(CC(=O)N2c3ccccc3CCc3ccccc32)CC1  0.174
30. Cc1ccc(-c2nnn(CC(=O)N(CC(=O)NC3CCCC3)c3ccc(F)c(Cl)c3)n2)o1  0.164
31. COC(=O)C1=C(C)N(CCC2=CCCCC2)C(=O)C1  0.161
32. Cc1cccc(C)c1NC(=O)c1cccc(COc2cc(Cl)ccc2Cl)c1  0.157
33. CCOCCSc1nnc2nc(C)cc(C)n12  0.142
34. O=C(CCc1ccccc1)Nc1ccccc1[N+](=O)[O-]  0.126
35. CCCCCCC(=O)Nc1nc(C)c(-c2csc(Nc3cc(OC)ccc3OC)n2)s1  0.11
36. CC(C)c1ccccc1NC(=O)COC(=O)c1c2c(nc3ccccc13)CCN(Cc1ccccc1)C2  0.105
37. O=C(C1=C(O)C(=O)N(CCCN2CCOCC2)C1c1ccccn1)c1cc2ccccc2o1 (stereo unspecified)  0.0916
38. CN(c1cccc(NC(=O)CSc2ccc(Cl)cc2)c1)S(C)(=O)=O  0.0636
39. Cc1[nH]n(-c2ccc([N+](=O)[O-])cc2)c(=O)c1C=NCCN1CCN(C(=O)c2ccc(Br)cc2)CC1  0.0353
40. Cc1ccc(CNC(=O)c2ccc(Br)o2)cc1  0.0302
41. O=C(Nc1ccc2nsnc2c1)N1CCCCC1  0.0225
42. O=C(Oc1ccc2c(c1)OCO2)c1cc2c(s1)CCC2  0.0193
43. CCOC(=S)SCC(=O)Nc1nc(-c2ccc(Br)cc2)cs1  0.0099
44. CSCCC(NC(=O)COc1ccccc1)C(=O)Nc1ccc(C)cc1 (stereo unspecified)  0.00859
45. CC1=C(C(=O)OCCOC(C)C)C(c2cccnc2)C2=C(CCCC2=O)N1 (stereo unspecified)  0.00765
46. O=C(COC(=O)c1cc(=O)[nH]c2ccccc12)Nc1nc(-c2cccc(Br)c2)cs1  0.00537
47. CCOc1nc(-c2ccc(OC)cc2)ccc1-c1noc(-c2cc(OC)c(OC)c(OC)c2)n1  -0.00199
48. N/C(=N\OC(=O)Cc1ccc(-c2ccccc2)cc1)c1cccnc1  -0.00729
49. CC(=O)Nc1cccc(Oc2cnc3ccccc3n2)c1  -0.0332
50. Cc1ccc(NC(CNS(=O)(=O)c2ccc(Cl)cc2)c2ccccc2)cc1 (stereo unspecified)  -0.0374
51. Cc1ccccc1/C=N/NC(=O)Cn1cnc([N+](=O)[O-])n1  -0.0421
52. CC(C)NC(=O)C(=O)NCCN1CCN(S(=O)(=O)c2ccc(Cl)cc2)CC1  -0.0595
53. Oc1ccccc1/C=N/Nc1cccc2cccnc12  -0.0637
54. CC1CC(C)(C)CC2(C1)NC(=O)N(CC(=O)NCCc1c[nH]c3ccccc13)C2=O (stereo unspecified)  -0.065
55. Cc1ccc(S(=O)(=O)NNC(=O)c2ccccc2O)cc1  -0.0886
56. CC(=O)Nc1c(C(=O)N2CCCCCC2)cnn1-c1ccccc1Cl  -0.0887
57. O=S(=O)(c1ccc(S(=O)(=O)N2CCN(C/C=C/c3ccccc3)CC2)cc1)N1CCCC1  -0.122
58. Cc1ccc(-c2nc(NCc3cccnc3)c3ccccc3n2)cc1  -0.131
59. CCN(CC)S(=O)(=O)c1ccc(C2=NOC3(C2)N(C)c2ccccc2C3(C)C)cc1 (stereo unspecified)  -0.169
60. Cc1cc(C)nc(SC(C(=O)O)c2ccccc2)n1 (stereo unspecified)  -0.17
61. Cc1ccc(/C=C/C(=O)Nc2ccc([N+](=O)[O-])cc2)o1  -0.17
62. O=[N+]([O-])c1cccc(C(=Nc2cccc(Cl)c2)NO)c1  -0.172
63. CNC(=O)COC(=O)c1ccc(-c2nc3ccccc3s2)s1  -0.18
64. CCOC(=O)CSc1nnc(CSc2nc(C)cc(C)n2)n1Cc1ccco1  -0.181
65. O=C(CSc1ccccn1)Nc1cccc(NC(=O)CSc2ccccn2)n1  -0.186
66. CCOC(=O)CC1C(=O)NCCN1C(=O)Nc1ccccc1 (stereo unspecified)  -0.19
67. COc1ccc(NC(=O)c2cccc(Cn3cc(Br)cn3)c2)cn1  -0.191
68. COc1cc(Br)c(CCNC(=O)Cc2ccccc2)cc1OC  -0.198
69. Cc1ccc(-n2c(C)cc(C3N=C(N)Nc4nc5ccccc5n43)c2C)c(C)c1 (stereo unspecified)  -0.207
70. COc1ccc(-c2cc3ccccc3oc2=O)cc1NC(=O)c1cccnc1  -0.208
71. CS(=O)(=O)N1CCN(CC2CC3C=CC2C3)CC1 (stereo unspecified)  -0.21
72. CCOc1nc(N(C)C)nc(-n2nnc(C(C)=O)c2C)n1  -0.22
73. CC(=O)NN1C(=O)c2ccccc2NC1c1ccccn1 (stereo unspecified)  -0.25
74. CCN(CC)S(=O)(=O)c1ccc(C(=O)Oc2ccc3c(c2)OCO3)cc1  -0.26
75. CCOC(=O)c1sc(NC(=O)Nc2ccccc2F)nc1C  -0.263
76. Cc1ccc(NC(=O)/C=C\C(=O)O)c([N+](=O)[O-])c1  -0.264
77. CC(C)NC(=O)CCS(=O)(=O)c1cccc2nonc12  -0.265
78. COC(=O)c1c(-c2ccc(C(C)(C)C)cc2)csc1NC(=O)C1C2CCC(O2)C1C(=O)O (stereo unspecified)  -0.268
79. CCc1ccc2c(c1)C1(C(=O)N2)N2CCCC2C(C(=O)c2ccc3ccccc3c2)C12C(=O)Nc1ccccc12 (stereo unspecified)  -0.276
80. Cn1nnc2cc(C(=O)N3CCSCC3)ccc21  -0.279
81. Cc1ccc(CNC(=O)C(=O)NCCCn2ccnc2)cc1  -0.281
82. O=C1N[C@@H](Cc2ccccc2)C(=O)N1CCN1CCOCC1  -0.283
83. Cn1c(CN2CCCCC2)nc2cc(NC(=O)c3ccc(Cl)cc3)ccc21  -0.288
84. Cc1cc(NC(=O)CCC(=O)N(CC(=O)NC2CCCC2)Cc2ccc(F)cc2)no1  -0.327
85. COc1ccccc1N/C(=N/c1nc(C)cc(C)n1)NC(C)=O  -0.38
86. Cc1cc(C)n(-c2nc(-c3cccc(Cl)c3)cs2)n1  -0.396
87. Cc1cc(Br)cc2c1NC(=O)C2(c1c(C)n(C)n(-c2ccccc2)c1=O)c1c(C)n(C)n(-c2ccccc2)c1=O  -0.413
88. COc1ccccc1/C=C(\NC(=O)c1ccc(OC)c(OC)c1)C(=O)Nc1cccc([N+](=O)[O-])c1  -0.431
89. CC(CCc1ccccc1)NC(=O)c1cccs1 (stereo unspecified)  -0.437
90. O=C1CC(NCc2ccncc2)C(=O)N1c1ccccc1 (stereo unspecified)  -0.442
91. c1cc2c(cc1-c1cnc3n1CCC3)OCCO2  -0.449
92. Cc1nc2sc3c(c2c2nnc(SCC(=O)NCc4ccco4)n12)CCCC3  -0.469
93. O=C(NCc1nnc(SCC(=O)N2CCCCCC2)o1)c1ccco1  -0.474
94. O=C(CSc1nnc(CNc2ccc(F)cc2)n1CC1CCCO1)Nc1ccccc1 (stereo unspecified)  -0.477
95. COc1ccc(OC)c2c1CCC2=O  -0.492
96. COc1ccc(-c2csc(C3=C(O)CN(Cc4ccc(Cl)cc4)C3=N)n2)cc1OC  -0.508
97. CCn1c(SCC(=O)c2ccc3ccccc3c2)nnc1-c1cccs1  -0.549
98. O=[N+]([O-])c1ccc(N/N=C2/CCCCC2c2ccccn2)cc1 (stereo unspecified)  -0.622
99. COc1cc2oc3ccccc3c2cc1N(CC(=O)N(C)C)S(=O)(=O)c1ccc(C)cc1  -0.642
100. C=CCn1c(SCC(=O)c2ccc(OC)cc2)nnc1C(C)NC(=O)c1cccs1 (stereo unspecified)  -0.694
101. COc1ccccc1-n1c2c(cc(C(=O)N3CCC(C)CC3)c1=O)C(=O)CC(C)(C)C2  -0.717
102. Cc1cc(=O)n(C)c(=O)n1CCCCCCOc1cccc([N+](=O)[O-])c1  -0.884
103. CCCCSc1nnc(-c2ccccc2N)c(=O)[nH]1  -0.948
104. COc1ccccc1-c1nc(C#N)c(N2CCN(c3cccc(Cl)c3)CC2)o1  -0.988
105. Cn1c(NCCCO)nc2ccccc21  -1.34
106. CC(C)CSc1nc2c(=O)[nH][nH]c(=O)c2n1Cc1ccccc1  -1.71
107. CCSc1nc2c(c(=O)n1Cc1ccccc1)SC(C)C2 (stereo unspecified)  -1.74

`CCn1c(-c2ccc(-c3ccccc3)cc2)c[nH]c1=S` was tested, and the z-score was active: 3.86.
With `CCOC(=O)c1c2n(c3c(NCc4ccccc4)ncnc13)CCCC2` the z-score was active: -4.53.
In the case of `Cc1[nH]c2ccccc2c1CN1CCc2ccccc2C1`, the z-score is reported as active: 3.72.
For `S=c1nc(C2CC2)[nH]c2ccccc12`, the z-score was active: 9.36.
